Consider 26 molecules from PubChem BioAssay AID1963576 (National Center for Advancing Translational Sciences (NCATS), 2024).

Among all 46,000 compounds or so, about 60 (0.1%) were called active. Another 3% or so got no clear call; they are omitted. Calls come from the whole dose curve; as a rule, active = well fitted inhibition curve with a large enough effect; inconclusive = small, poorly fitted or top-dose-only effect; inactive = no such curve, though single readings can be large or run the other way. The list shows a part of the results.

The nature of this assay: Primary qHTS assay for Inhibitors of ovarian cancer metastasis using an organotypic tumor microenvironment (TME) model.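 For activity change, negative = inhibition: plate controls were DMSO wells for no effect and tomatine positive control wells for full effect.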 Note: nearly all actives have a fitted effect of over 65% in size. The settings on record: SKOV3ip1-GFP adhesion/invasion on 3D omental model, fluorescence; series mostly up to 45.8 µM; activity change, negative = inhibition: at the top concentration. The essentials:
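Primary human omental fibroblast/mesothelial 3D culture pre-formed 48 h. SKOV3ip1-GFP cells added with compounds (0.36-46 umol/L), incubated 2 h RT/16 h 37 C, fixed; GFP cells quantified at 488/509 nm.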
For `Cc1c(Cl)cccc1NC(=O)N1CCOc2ccccc21`, the “activity change, negative = inhibition” value was inactive: -2.41%.

As for `CCOc1ccc(CNC(=O)C2CCN(C(=O)N3CC(CC)Oc4ccccc43)CC2)cc1` (stereo unspecified), the “activity change, negative = inhibition” value is inactive: -6.76%.

As for `COC(=O)c1sccc1S(=O)(=O)N1CCN(c2ccc(C)cc2C)CC1`, the “activity change, negative = inhibition” value was inactive: 2.82%.

`CCOc1ccc(CNC(=O)c2ccccc2NC(=O)c2nsc3ccccc23)cc1`: the “activity change, negative = inhibition” value was inactive: 13.5%.

In the case of `Cc1ccc(NC(=O)NCCOCCn2c(=O)oc3ccccc32)cc1C`, the outcome was inactive.

Take `CCOc1ccccc1NC(=O)C(=O)NCCc1sc2nc(-c3ccc(OC)cc3)nn2c1C`: the “activity change, negative = inhibition” value was inactive: -6.06%.

For `CCOc1ccc(CCNC(=O)c2cc3c(=O)n(C)c4ccccc4c3n2C)cc1OCC`, the “activity change, negative = inhibition” value was inactive: -8.56%.

In the case of `Cc1c(-c2ccc(Cl)cc2)c(=O)oc2c(CN3CCN(CCO)CC3)c(O)ccc12`, the “activity change, negative = inhibition” value was inactive: -3.71%.

As for `Cc1ccc(Cn2c(=O)n(-c3ccc(C)cc3)c(=O)c3c2c2cc(C)ccc2n3C)cc1`, the “activity change, negative = inhibition” value was inactive: 0.545%.

In the case of `COC(=O)c1ccc(NC(=O)CN2CCN(S(=O)(=O)c3ccc(Br)cc3)CC2)cc1`, the “activity change, negative = inhibition” value is inactive: -25.1%.

For the molecule `CCOc1ccccc1NS(=O)(=O)c1ccc2[nH]c3c(c2c1)CCCCC3`, the “activity change, negative = inhibition” value is inactive: 5.97%.

With `COc1ccc(S(=O)(=O)N(CC(=O)Nc2cc(C)ccc2OC)Cc2ccccc2)cc1`, the “activity change, negative = inhibition” value was inactive: 3.45%.

Turning to `CSc1cccc(NC(=O)C2CCCN(C(=O)c3cnn(-c4ccc(F)cc4)c3-n3cccc3)C2)c1` (stereo unspecified), the “activity change, negative = inhibition” value was inactive: 1.24%.

Turning to `Cc1ccc(NC(=O)Nc2ccc3nc(N4CCN(C)CC4)cc(C)c3c2)cc1F`, the call was inactive.

As to `CCOc1cc(C2c3c(oc4cc(C)cc(C)c4c3=O)C(=O)N2CCO)ccc1O` (stereo unspecified), the “activity change, negative = inhibition” value is inactive: -3.31%.

Consider `N#C/C(=C\c1cccc(F)c1)c1nc(-c2cc3c(ccc4ccccc43)oc2=O)cs1`, for which the “activity change, negative = inhibition” value was inactive: 11.9%.

On to `C[C@@H]1CC(=O)NN=C1c1ccc(NN=C(C#N)C#N)cc1`, for which the “activity change, negative = inhibition” value is inactive: -5.16%.

In the case of `O=C(CSc1cn(CC(=O)N2CCCCC2)c2ccccc12)NCc1ccc(F)cc1`, the outcome was inactive.

Consider `CN(CC(=O)Nc1ccc(Br)cc1)S(=O)(=O)c1cccc2nsnc12`, for which the “activity change, negative = inhibition” value is inactive: -4.95%.

For the molecule `COc1ccc(NC(=O)C2CCN(C(=O)c3sc4nc[nH]c(=O)c4c3C)CC2)cc1Cl`, the “activity change, negative = inhibition” value is inactive: -12.3%.

On to `CCOC(=O)C1CCN(c2nc3ccccc3nc2Cl)CC1`, for which the molecule was classed as inactive.

Consider `COc1ccc(NC(=O)c2oc3ccccc3c2NC(=O)c2cc(C)cc(C)c2)c(OC)c1`, for which the “activity change, negative = inhibition” value is inactive: 26.6%.

For the molecule `CN1C(=O)Cc2cc(S(=O)(=O)CCC(=O)N3CCN(c4ccc(Cl)cc4)CC3)ccc21`, the “activity change, negative = inhibition” value is inactive: -4.61%.

Turning to `Cc1cc2oc(C(=O)N(Cc3ccc(N(C)C)cc3)CC3CCCO3)c(C)c2cc1Cl` (stereo unspecified), the molecule was called inactive.

In the case of `COc1ccccc1NC(=O)CSc1nc2c(oc3ccccc32)c(=O)n1-c1ccccc1F`, the result was inactive.

In the case of `CN(Cc1ccccc1)c1ccc(-c2nc(-c3ccccc3)no2)cc1[N+](=O)[O-]`, the “activity change, negative = inhibition” value was inactive: -7.76%.
